The results in this text go back to patent US9849135B2, “USP14 inhibitors for treating or preventing viral infections” (priority 2013, dated 2017).

pEC50, pIC50: −log10 of the molar value.

Assay [1] deals with HeLa cells. Kind of assay: cells. Particulars: Homo sapiens, 48 h, read-out: half maximal inhibitory concentration (IC50), cell viability. As to the method:
(§1) Cell viability was also evaluated to make sure that the titer reduction was not due to compound cytotoxicity. Cell viability was measured using the cell proliferation based MTT [3-(4,5-dimethylthiazol-2-yl)-2,5-diphenyl tetrazolium bromide] assay. Cell viability assays were carried out for both HEK293 T and HeLa cells. Each well of a 96-well plate was seeded with 2×10^4 cells in 100 μl DMEM. After overnight incubation, media were removed and replaced with 100 μl of fresh media containing either DMSO or various concentrations (0-1000 μM) of IU1 in DMSO. Cell viability was determined after 48 h at 37° C. using a MTT cell-proliferation kit from ATCC, following the manufacturer's protocol. […] This is the first observation that enhanced protein degradation inhibits viral replication. The results are unexpected, because inhibition of the UPS reduces the viral yield.

Assay [2] deals with HEK293 T cells. Briefly: cells. Particulars: Homo sapiens, HEK-293T, 48 h, read-out: half maximal inhibitory concentration (IC50), cell viability. As to the method:
as §1

The test system of assay [3] is DENV2. Particulars: compared with HEK293 T cells; data not shown. As to the method: as §1
Assay [4] has as its system DENV2 (New Guinea C strain). Briefly: DENV2 replication in HEK293T cells preincubated with IU1, titer by plaque assay on Vero cells. As to the method:
To determine the effect of USP14 inhibition on viral replication, 2×10^5 HEK293T cells that were preincubated with various concentrations of IU1 (ENAMINE Ltd., Kiev, Ukraine) were infected for 4 h, with DENV2 (New Guinea C strain) at 0.1 moi. After 70 h at 37° C., supernatant was collected and the viral titer was determined by plaque assay on Vero cells. The viral yield was reduced by 20 fold in the presence of 75 μM IU1, with a half maximal effective concentration (EC50) of 40 μM (FIG. 1A).

As for `Cc1cc(C(=O)CN2CCCC2)c(C)n1-c1ccc(F)cc1` [IU1, 1-(1-(4-fluorophenyl)-2,5-dimethyl-1H-pyrrol-3-yl)-2-(pyrrolidin-1-yl)ethanone], the pIC50 in assay [1] is 3.59; in assay [2], 3.52. Further, the “inhibition of DENV2 replication in HeLa cells” value in assay [3] is “a similar result was obtained in HeLa cells”. Also, in assay [4] (75 μM IU1, HEK293T cells preincubated, 0.1 moi, 70 h), the viral yield reduction is recorded as 20 fold. In addition, the pEC50 in assay [4] (Dengue virus, HEK-293T, HEK293T cells preincubated with IU1, DENV2 titer, read-out: half maximal effective concentration (EC50)) was 4.40.
